The whole screen tested about 45,000 compounds, of which about 65 (0.1%) were called active. Calls follow the shape of the dose curve; as a rule, active = well fitted activation curve with a large enough effect; inconclusive = small, poorly fitted or top-dose-only effect; inactive = no such curve, though single readings can be large or run the other way. The list shows a part of the results.
Biological target: Galactocerebrosidase (Homo sapiens) (UniProt P54803)
Assay: A Novel Cell-Based Assay to Identify Small Molecules for B -Galactocerebrosidase; also: 0% is about no effect; nearly all actives have a fitted effect of over 65% in size
Conditions: 145M-Twi-hGALC-G270D cells (Twitcher mouse brain line with human GALC G270D), HMU-beta-Gal fluorescence, 48 h; series mostly up to 57.5 µM; activation: at the top concentration
In short: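 Brain-derived Twitcher mouse 145M-Twi cells stably expressing human GALC-G270D or wild-type GALC, treated live, then residual GALC activity read by fluorescence of HMU-b-Gal substrate (0.1 mM final) in citrate-phosphate buffer pH 5.2 with sodium taurocholate. Signal increase indicates enhancement.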

Chain of UniProt P54803 (P54803 whole entry, looked up): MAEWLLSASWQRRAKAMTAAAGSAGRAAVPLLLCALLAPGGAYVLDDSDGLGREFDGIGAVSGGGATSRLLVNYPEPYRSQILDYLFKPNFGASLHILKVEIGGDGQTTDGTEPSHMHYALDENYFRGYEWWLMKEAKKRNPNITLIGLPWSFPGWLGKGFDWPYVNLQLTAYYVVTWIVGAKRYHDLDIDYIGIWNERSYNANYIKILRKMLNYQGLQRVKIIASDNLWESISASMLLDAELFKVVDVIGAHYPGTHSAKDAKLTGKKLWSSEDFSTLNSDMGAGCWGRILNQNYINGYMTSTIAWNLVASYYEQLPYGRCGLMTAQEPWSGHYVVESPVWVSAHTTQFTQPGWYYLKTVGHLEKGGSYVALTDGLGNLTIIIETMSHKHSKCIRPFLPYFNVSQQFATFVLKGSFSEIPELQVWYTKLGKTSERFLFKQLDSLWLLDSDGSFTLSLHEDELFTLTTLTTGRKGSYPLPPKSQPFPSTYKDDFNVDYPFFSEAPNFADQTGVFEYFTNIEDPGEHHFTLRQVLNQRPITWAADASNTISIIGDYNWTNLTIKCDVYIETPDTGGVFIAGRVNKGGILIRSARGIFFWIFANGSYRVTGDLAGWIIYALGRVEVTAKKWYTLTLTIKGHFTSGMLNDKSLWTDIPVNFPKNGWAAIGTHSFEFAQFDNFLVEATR

activation, inactive:
Cc1cccc(Cn2nnc3c(=O)[nH]c(C4CCCN(C(=O)c5ccccc5Cl)C4)nc32)c1 (stereo not given) 1.63%
Cc1ccc(N(C)C(=O)CN2C(=O)CCc3cc(S(=O)(=O)N4CCOCC4)ccc32)cc1 5.12%
O=C(c1ccc2c(c1)N(Cc1cccc(Cl)c1)C(=O)c1ccccc1S2=O)N1CCN(c2cccc(C(F)(F)F)c2)CC1 (stereo not given) -8.47%
O=C(NC1CC(=O)N(c2ccc(F)cc2)C1)c1ccc2c(c1)OCO2 (stereo not given) 3.63%
COc1ccccc1CNC(=O)CCn1cnc2ccccc2c1=O -15.1%
CCc1ccc(NC(=O)Cn2c(=O)n(-c3cc(OC)c(OC)c(OC)c3)c(=O)c3ccccc32)cc1 -24.1%
CC(NC(=O)c1ccc(F)cc1)c1nc2ccccc2[nH]1 (stereo not given) -15.2%
COc1ccccc1NC(=O)c1cn(-c2ccccc2)nc1-c1ccccc1 -9.98%
Cc1cc(C(=O)C(=O)Nc2nncs2)c(C)n1-c1ccc(Cl)cc1 -15%
Cc1cccc(N2CCN(C(=O)c3noc4c3CCCCC4)CC2)c1C -14.4%
COc1ccc(N2CCN(C(=O)CNS(=O)(=O)c3ccc(Br)s3)CC2)cc1 -2.69%
Cc1ccc(-n2ncc3c(NC4CCCCC4)ncnc32)cc1Cl -5.56%
Cc1ccc(N2CCN(C(=O)c3cnn(-c4ccc(C)c(C)c4)c3C3CCNCC3)CC2)c(C)c1 -17.6%
COc1ccc(CNC(=O)CCCn2nc(C)c3c(C)n(-c4ccc(C)cc4)nc3c2=O)cc1OC -0.222%
O=C(CNC(=O)c1ccc(F)cc1)OCc1cc(=O)n2nc(C3CCCCC3)sc2n1 -12.1%
COc1ccc(OC)c(NC(=O)CN2CCCN(Cc3ccccc3Cl)S2(=O)=O)c1 -9.81%
CCOc1cc(CNC(=O)c2ccc3c(c2)N(C)C(=O)C2CCCCN32)ccc1OC (stereo not given) -20.6%
CCOc1ccccc1C(=O)NCc1nc2cccnc2n1Cc1ccc(C)cc1 3.04%
O=C(CN1C(=O)COc2ccc(S(=O)(=O)N3CCCCCC3)cc21)N1CCN(c2ccccc2F)CC1 -9.03%
CCOc1ccc(CNC(=O)CCS(=O)(=O)c2cc3c4c(c2)CCN4C(=O)CC3)cc1OC -7.86%
O=C(CSc1nccn1Cc1ccco1)Nc1cc(C(F)(F)F)ccc1Cl -19.1%
CCN(c1ccccc1)c1nnc(NC(=O)Nc2ccc(Br)c(C)c2)s1 -7.58%
O=C(c1ccc2c(Cl)c3c(nc2c1)CCCC3)N1CCN(c2cccc(C(F)(F)F)c2)CC1 1.01%
COc1cc(OC)c(NC(=O)C2CCN(S(=O)(=O)c3ccc4c(c3)oc(=O)n4C)CC2)cc1Cl -10.2%
COc1ccc2c(CNCCc3cccs3)c(C(=O)O)n(Cc3cccc(F)c3)c2c1 -12.3%
Cc1ccc(CNC(=O)CN2CCN(Cc3ccc(F)cc3Cl)C2=O)cc1 -10.3%
COc1ccc2nc(NC(=O)c3cc(=O)c4cc(C)cc(C)c4o3)sc2c1 -18.6%
CCc1ccc(S(=O)(=O)c2cn(CC)c3cc(N4CCCCC4)c(F)cc3c2=O)cc1 -6.67%
COc1ccc(OC)c(NC(=O)CCNS(=O)(=O)c2ccc3c(c2)oc(=O)n3C)c1 -5.65%
CCc1ccc(Nc2sc(C(=O)c3ccc(F)cc3)c(N)c2S(=O)(=O)c2ccccc2)cc1 -7.17%
Nc1c(C(=O)NCc2ccc(Cl)cc2)sc2nc(-c3ccc(F)cc3)ccc12 -2.23%
COc1ccc(C(=O)N2CCN(CC(=O)N3CCOCC3)CC2)cc1 -9.75%
CC1=C(C(=O)OCc2ccc(C)cc2)C(c2cccc(F)c2F)CC(=O)N1 (stereo not given) -16.5%
COc1ccc(-c2cc(C(F)(F)F)n3nc(C(=O)Nc4cc(C)ccc4C)cc3n2)cc1 -24.1%
Cc1ccc2c(c1)c1c3n2CCN(C(=O)c2ccc(C(F)(F)F)cc2)C3CCC1 (stereo not given) -10.1%
COc1ccc(OCC(=O)Nc2ccc3nn(-c4ccc(OC)cc4)nc3c2)cc1 -23%
CCNC(=O)c1cc2n(n1)CCCN(Cc1ccc(C)cc1)C2=O 2.77%
COc1ccc(CCNC(=O)c2cc3c(=O)oc4ccc(C)cc4c3s2)cc1OC -4%
Cc1nn(C(=O)c2cccc(F)c2)c(C)c1S(=O)(=O)N1CCOCC1 -12.9%
O=C(C1CCN(c2ncnc3c2nc2n3CCCCC2)CC1)N1CCN(c2ccc(Cl)cc2)CC1 -6.85%
CCOC(=O)c1sc2ccccc2c1S(=O)(=O)N1CCN(c2cc(C)ccc2C)CC1 -5.1%
O=C1Cc2cc(Cl)ccc2N1 -10.9%
Cc1ccccc1NC(=O)Cn1nnc(C(=O)NCCc2ccccc2)c1N -6.89%
O=C(NC1CCCCC1)c1ccc(CSc2nc3ccncc3n2Cc2ccc(F)cc2)cc1 -16.8%
CCc1nn2c(=O)c(S(=O)(=O)Nc3ccc(Br)cc3F)c(C)nc2s1 -21.8%
Cc1ccc(NC(=O)c2c(NC(=O)c3ccccc3Cl)sc3c2CCC3)cc1 -13.3%
COc1ccccc1CNc1nc2c(S(=O)(=O)c3ccccc3)nnn2c2ccc(Cl)cc12 1.38%
COc1ccc(Nc2cc(C(=O)NC3CCCC3)c3ccccc3n2)cc1 -15.1%
COc1ccc(C2C=C(c3ccc(Br)cc3)Nc3nnnn32)c(OC)c1 (stereo not given) -24.8%
CS(=O)(=O)N1CCc2cc(C(=O)N3CCN(c4ccccc4F)CC3)ccc21 -14.1%
O=C(CCSCc1ccc(Cl)cc1)NCc1ccc(F)cc1Cl -5.95%
CN1CCN(C(=O)Cn2ncc3c4ccccc4n(Cc4ccc(Cl)cc4)c3c2=O)CC1 -7.43%
Cc1cc(C)c(NC(=O)c2c(C)nn(-c3ccc(F)cc3)c2-n2cccc2)c(C)c1 -25.3%
O=C(CSc1nccn1Cc1ccc(F)cc1)NCc1ccc(F)cc1 -15.1%
CSc1nc(=O)c2c(n1C)NC(=O)CC2c1cc(F)cc(F)c1 (stereo not given) -11.3%
Cc1ccc2nc(Cl)c3cc(C(=O)NCCCN(C)Cc4ccccc4)sc3c2c1 -8.25%
CC(=O)c1cccc(NC(=O)Cn2nc(C(F)(F)F)c3c2CCC3)c1 -5.93%
NC(=O)c1nn2c(C(F)(F)F)cc(-c3ccc(Br)cc3)nc2c1Cl -11.4%
COc1ccc(C2C(C(=O)Nc3ccc(C)cc3C)=C(C)Nc3nc(SCc4cccc(C)c4)nn32)c(OC)c1 (stereo not given) -11.2%
CC(C)(C)CC(C)(C)c1ccc(OCC(=O)Nc2ccc(S(=O)(=O)Nc3ncccn3)cc2)cc1 -14.4%
Cc1ccc(C)c(N(C)C(=O)Cc2c(C(=O)O)[nH]c3ccc(Cl)cc23)c1 -3.09%
CC1=C(C(=O)Nc2ccc(C)cc2C)C(c2ccc(Br)cc2)n2ncc(C(=O)Nc3cccc(C)c3)c2N1 (stereo not given) -3.93%
COc1ccccc1CNC(=O)CSc1nc(=O)[nH]c2c1CCC2 -1.63%
CN(C)c1ccc(Nc2nc3ccccc3n3nnnc23)cc1 -20.4%
COc1ccccc1-c1nn2c(=O)cc(CN3CCN(C(=O)/C=C/c4ccccc4)CC3)nc2s1 -6.15%
COc1cccc(CNC(=O)CN2C(=O)N(c3cccc(Cl)c3)S(=O)(=O)c3ccccc32)c1OC -11.3%
CCN(CC)c1ccc(-n2nc3cc(C)c(NC(=O)c4ccccc4C)cc3n2)c(C)c1 -19.2%
CCOc1ccc(NC(=O)Cn2c(=O)n(CCCCC(=O)NCc3ccc4c(c3)OCO4)c(=O)c3ccccc32)cc1 -10%
CCCCCn1c(CNC(=O)c2ccccc2)nc2ccccc21 -16.8%
CCc1ccc(S(=O)(=O)NCc2nc3cccnc3n2Cc2cccc(OC)c2)cc1 -8.13%
Cc1c(Cl)cccc1Nc1nn2c(=O)c3ccc(C(=O)NCCC4=CCCCC4)cc3nc2s1 -1.33%
Cc1cc(C)c(S(=O)(=O)N2CCN(Cc3ccc4c(c3)OCO4)CC2)cc1C -20.8%
CCOC(=O)C1=C[C@]2(CC)CCCN3CCc4c(n1c1ccccc41)[C@@H]32 -11.8%
COc1ccc(S(=O)(=O)c2nnn(-c3ccc(C(C)C)cc3)c2C)cc1 -14.4%
Cc1ccccc1Cn1c(=O)n(CC2CCC(C(=O)N3CCOCC3)CC2)c(=O)c2sccc21 (stereo not given) -9.81%
CCOc1ccccc1NS(=O)(=O)c1ccc(N2CCCCS2(=O)=O)cc1 -3.81%
O=C(NCCc1csc(-c2ccc(C(F)(F)F)cc2)n1)C(=O)Nc1ccc(F)c(Cl)c1 -3.79%
CCOC(=O)c1c(N)n(-c2ccc(CC)cc2)c2nc3ccccc3nc12 -4.09%
CC(=O)Nc1ccc(C)cc1-c1nc2ccccc2n(CC(=O)c2ccc(C)c(C)c2)c1=O -14.6%
CN1CCN(c2nc3c(S(=O)(=O)c4ccc(Cl)cc4)nnn3c3ccsc23)CC1 -14.9%
COc1ccc(S(=O)(=O)n2nc(C)c(S(=O)(=O)N3CCCCCC3)c2C)cc1C -5.56%
CC(=O)N1CCOc2cc(S(=O)(=O)NCc3ccccc3Cl)c(Cl)cc21 -15.3%
CCc1ccc(NC(=O)Cn2c(=O)n(-c3ccccc3C)c(=O)c3c2c2cc(OC)ccc2n3C)cc1 4.13%
COc1ccc(NC(=O)CSc2nc3ccccc3nc2N2CCCCC2)cc1 -14.6%
O=C(CN1C(=O)CSc2ccc(S(=O)(=O)N3CCOCC3)cc21)NCCCN1CCCCC1 -13.2%
Cc1ccc(C)c(NC(=O)Cn2c(SCC(=O)NCc3ccccc3)nc3ccccc32)c1 -19%
Cc1nc(-c2ccc(F)cc2)sc1CCNC(=O)c1cccs1 -3.86%
Cc1ccc(N(CC(=O)N2CCN(c3ccccc3)CC2)S(=O)(=O)c2c(C)noc2C)cc1 -13.2%
CC(C)CCCC(C)CCCC(C)CCCCC(C)CCCC(C)CCCC(C)C (stereo not given) -12.3%
CCOc1ccc(N(CC(=O)Nc2ccc(OC)cc2)S(=O)(=O)c2ccc(Cl)cc2)cc1 6.46%
CC(C)Oc1ccc(C(=O)NCC(c2ccc(N(C)C)cc2)N2CCc3ccccc32)cc1 (stereo not given) -14.8%
Cc1ccc(-c2noc(-c3nnn(CC(=O)Nc4ccc(C)c(Cl)c4)c3N)n2)cc1 -12%
CCOC(=O)c1ccccc1NC(=O)N1CCC(CN2CCOCC2)CC1 -7.32%
CCOC(=O)c1[nH]c2c(c1Cc1ccccc1)C(=O)CC(c1ccccc1)C2 (stereo not given) -27.1%
CCOc1ccc(NC(=O)Cn2nc3c(cc2=O)CC(C)CC3)cc1 (stereo not given) -1.47%
